Source: PubChem BioAssay AID686979 (National Center for Advancing Translational Sciences (NCATS), 2013)
Hit rate of the full screen: of about 420,000 compounds, about 50,000 (12%) were called active. The inconclusive results got no clear call from the source; some entries with a clear call stand among them for comparison. The call rests on the fitted dose curve; in most records, active means well fitted inhibition curve with a large enough effect; inconclusive means small, poorly fitted or top-dose-only effect; inactive means flat fitted curve, though single readings scatter. Potencies of inconclusive entries are left out as doubtful fits.

Experiment: qHTS for Inhibitors of human tyrosyl-DNA phosphodiesterase 1 (TDP1): qHTS in cells in presence of CPT; further: nearly all actives have a fitted effect of over 55% in size
Conditions: chicken DT40 Tdp1-/-;hTDP1 cells + 20 nM CPT, ATP luminescence, 48 h; activity change, negative = growth inhibition: at 46.2 µM (top of the series) unless noted
Summary of the method: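 Chicken DT40 Tdp1-/- cells stably complemented with human TDP1 were seeded at 400 cells/well in medium containing 20 nM camptothecin, exposed to pin-transferred compounds, and grown at 37 °C for at least 48 hr. Viability was read as ATP luminescence.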
On the % scale 0 is the no-effect control and ±100 the full control effect; potency means the concentration at half of the fitted maximal effect; tags describe the fitted curve by direction and shape.

Q: For `O=C(NNC(=O)C12CC3CC(CC(C3)C1)C2)c1csc(N2CCOCC2)n1`, which Potency is on record?
A: inconclusive [inhibitor, single point]

Q: With `COCCNC(=O)c1cc2c(c(-c3cccc(-c4cccc(OC)c4)c3)n1)[C@H](CCO)N(S(=O)C(C)(C)C)C2` (stereo partly specified) as the compound, how does the Potency read?
A: inconclusive [inhibitor, single point]

Q: Which Potency does the source give for `O=[N+]([O-])c1ncccc1OCc1ccc(-c2ccccc2)cc1` here?
A: inconclusive [inhibitor, single point]

Q: Which Potency does the source give for `Cn1c(-c2ccsc2)c(-c2cccs2)c2cc(-c3cccc4[nH]ccc34)ccc21` here?
A: inconclusive [inhibitor, single point]

Q: For `Cc1ccc(NC(=S)c2nc3ccccc3[nH]2)c(C)c1`, which Potency is on record?
A: inconclusive [inhibitor, single point]

Q: For `COc1ccc(NC(=O)CN(C)C(=O)C23CC4CC(CC(C4)C2)C3)cc1`, which “activity change, negative = growth inhibition” value is on record?
A: inactive: 2.27%

Q: For `CCOc1ccc(NC(=O)Nc2ccc3c(c2)N(C)C(=O)CS3)cc1`, which Potency is on record?
A: inconclusive [inhibitor, single point]

Q: Which “activity change, negative = growth inhibition” value does the source give for `COc1ccc(Cl)cc1NC(=O)Cn1c(=O)oc2ccccc21` here?
A: inactive: 7.77%

Q: With `C[C@@H]1COC(=O)[C@H](CC(=O)OC(C)(C)C)C/C=C\C[C@@H](CC(=O)N(CCO)Cc2ccccc2)C(=O)N1` as the compound, how does the Potency read?
A: inconclusive [inhibitor, single point]

Q: For `Cc1ccccc1C(=O)NCCSc1ccccc1`, which “activity change, negative = growth inhibition” value is on record?
A: inactive: 0.118%

Q: For `COc1cc(/C=N/NC(=O)c2c(C)nc3ccc(Cl)cn23)cc(OC)c1OC`, which activity change, negative = growth inhibition is on record?
A: inconclusive: -34.3% [inhibitor]

Q: For `CCC(C(N)=NCCc1ccc(OC)c(OC)c1)c1ccccc1` (stereo unspecified), which Potency is on record?
A: active: 14.6 µM

Q: With `COc1ccc(NC(=S)N2CCCC2c2ccc(OC)c(OC)c2)cc1` (stereo unspecified) as the compound, how does the “activity change, negative = growth inhibition” value read?
A: inactive: -6.22%

Q: Which “activity change, negative = growth inhibition” value does the source give for `CCOP(=O)(OCC)C(NC(=O)NS(=O)(=O)c1ccc(C)cc1)c1ccccc1` (stereo unspecified) here?
A: inactive: -4.93%

Q: For `CCCCN(C)C(=O)c1cc2cc3ccc(OC)cc3nc2s1`, which Potency is on record?
A: inconclusive [inhibitor, single point]

Q: Which Potency does the source give for `O=C(Cn1ncc2c1-c1ccccc1OC2)N(Cc1ccco1)C1CCCCC1` here?
A: inconclusive [inhibitor, single point]

Q: With `O=C(CN1CCCSc2ccccc21)N1CCN(S(=O)(=O)c2ccccc2)CC1` as the compound, how does the Potency read?
A: inconclusive [inhibitor, single point]

Q: For `Cc1ccc(C)c(N2CCN(C(=O)c3ccc(N4CCCC4=O)cc3)CC2)c1`, which Potency is on record?
A: inconclusive [inhibitor, single point]

Q: For `O=C(CCN1C(=O)/C(=C\c2ccccc2)SC1=S)N1CCOCC1`, which Potency is on record?
A: active: 8.2 µM

Q: Which “activity change, negative = growth inhibition” value does the source give for `CC(=O)Nc1ccc(Nc2nc(C(F)(F)F)nc3c2nnn3Cc2ccccc2Cl)cc1` here?
A: inactive: 4.38%

Q: For `CCCCNCC1CCCO1` (stereo unspecified), which Potency is on record?
A: inconclusive [inhibitor, single point]

Q: With `C[C@H](CO)N1C[C@H](C)[C@@H](CN(C)S(=O)(=O)c2ccc3ccccc3c2)OCc2cnnn2CCCC1=O` as the compound, how does the “activity change, negative = growth inhibition” value read?
A: inactive: 2.91%

Q: For `O=C(O)c1ccc(Cl)c(NC(=S)NC(=O)c2ccccc2[N+](=O)[O-])c1`, which “activity change, negative = growth inhibition” value is on record?
A: inactive: -3.43%

Q: For `Cc1ccn(CC(=O)N2CCCC(N3CCN(c4ccccc4F)CC3)C2)n1` (stereo unspecified), which “activity change, negative = growth inhibition” value is on record?
A: inactive: -10.5%

Q: For `Cc1cccc(C)c1OCCn1c(C2CC(=O)N(Cc3ccc(F)cc3)C2)nc2ccccc21` (stereo unspecified), which Potency is on record?
A: inconclusive [inhibitor, single point]

Q: With `Cc1ccc(-c2nnc(N3CCN(c4ccccn4)CC3)c3ccccc23)cc1` as the compound, how does the Potency read?
A: inconclusive [inhibitor, single point]

Q: With `O=[N+]([O-])c1cccc(-c2nnc3ccccn23)c1` as the compound, how does the “activity change, negative = growth inhibition” value read?
A: inactive: 6.33%

Q: With `COc1cc2c(cc1OC)C(COc1ccc3c(C)cc(=O)oc3c1)N(C(=O)c1ccco1)CC2` (stereo unspecified) as the compound, how does the Potency read?
A: inconclusive [inhibitor, single point]

Q: For `CNS(=O)(=O)c1cc(-c2nnc(Nc3ccc(NC(C)=O)cc3)c3ccccc23)ccc1C`, which Potency is on record?
A: active: 16.4 µM

Q: For `Nc1c2c(nc3ccccc13)N(C1CCCCC1)CC2`, which Potency is on record?
A: inconclusive [inhibitor, single point]

Q: For `CC(Sc1nc2ccccc2[nH]1)C(=O)Nc1ccc2c(c1)OCCO2` (stereo unspecified), which Potency is on record?
A: inconclusive [inhibitor, single point]

Q: Which Potency does the source give for `COC(=O)[C@]12CCCCC=C1N(Cc1ccc(Cl)cc1Cl)C(=O)[C@H](CC(=O)NCCCCc1ccccc1)C2` here?
A: inconclusive [inhibitor, single point]

Q: For `Cc1ccc2c(c1)c1c3n2CCCN(Cc2ccccc2)C3CCC1` (stereo unspecified), which Potency is on record?
A: inconclusive [inhibitor, single point]

Q: Which Potency does the source give for `CN(Cc1nc2ccccc2c(=O)[nH]1)C(=O)c1cccc(S(=O)(=O)N2CCCCCC2)c1` here?
A: inconclusive [inhibitor, single point]

Q: Which “activity change, negative = growth inhibition” value does the source give for `CN(C)C(=O)COc1ccc(S(=O)(=O)c2ccc(OCC(=O)N(C)C)cc2)cc1` here?
A: inactive: 3.15%

Q: For `CC(C)[C@H](NC(=O)[C@@H]1CSCN1C(=O)OC(C)(C)C)C(=O)NCC1CCC(C(=O)O)CC1` (stereo partly specified), which “activity change, negative = growth inhibition” value is on record?
A: inactive: -2.48%

Q: For `COc1ccc(/C=C/C(=O)Nc2ccc(OC)nc2)cc1`, which “activity change, negative = growth inhibition” value is on record?
A: inactive: -1.14%

Q: For `CC(=O)/C(=N\Nc1ccccc1Cl)Sc1nnc(-c2ccccc2)n1-c1ccccc1`, which “activity change, negative = growth inhibition” value is on record?
A: inactive: -25.7%

Q: Which Potency does the source give for `CCCNC(=O)c1ccc2nc(-c3ccccc3)c(-c3ccccc3)nc2c1` here?
A: inconclusive [inhibitor, single point]

Q: For `COc1cc(C2C(C(=O)OC(C)C)=C(C)Nc3ncnn32)cc(OC)c1OC` (stereo unspecified), which “activity change, negative = growth inhibition” value is on record?
A: inactive: -8.57%

Q: Which “activity change, negative = growth inhibition” value does the source give for `CC(=O)NCCNC(=O)c1cccc(NS(=O)(=O)c2ccc3c(c2)OCCO3)c1` here?
A: inactive: 17.7%

Q: For `CC1(C)CC(=O)C=C(Nc2cccc(O)c2)C1`, which “activity change, negative = growth inhibition” value is on record?
A: inactive: -3.23%

Q: For `Cn1cc([N+](=O)[O-])c(C(=O)Nc2ccc(C3CCCCC3)cc2)n1`, which activity change, negative = growth inhibition is on record?
A: inconclusive: -30.5% [inhibitor]

Q: For `COc1cc(/C=C(\C#N)C(=O)Nc2cccc3ncccc23)cc(OC)c1OC`, which “activity change, negative = growth inhibition” value is on record?
A: inactive: -26.8%

Q: For `Cc1noc2ncnc(N3CCN(c4ccccc4F)CC3)c12`, which Potency is on record?
A: active: 20.6 µM

Q: With `CS(=O)(=O)N1CCN(c2ccccc2NC(=O)c2ccc3c(c2)OCCO3)CC1` as the compound, how does the Potency read?
A: inconclusive [inhibitor, single point]
